Experimental data as given in PubChem BioAssay AID1240 (Sanford-Burnham Center for Chemical Genomics, 2008).
In all, about 50,000 compounds went through this assay and about 800 (1.6%) showed an effect of 50% or more. The list shows a part of the results.

Molecular target: Bcl-2-like protein 10 (Homo sapiens) (UniProt Q9HD36)
Assay: TR3 peptide-Bcl-B binding displacers, biochemical primary FP assay, phenotype converters (AID 1240);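 further: 0% = Bcl-B with tracer peptide and DMSO and 100% = tracer peptide lacking Bcl-B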
Conditions: GST-Bcl-B / FITC-TR3 peptide fluorescence polarization; stronger effect = higher value; compound at 3.75 mg/L

Chain of UniProt Q9HD36 (Q9HD36 whole entry, looked up): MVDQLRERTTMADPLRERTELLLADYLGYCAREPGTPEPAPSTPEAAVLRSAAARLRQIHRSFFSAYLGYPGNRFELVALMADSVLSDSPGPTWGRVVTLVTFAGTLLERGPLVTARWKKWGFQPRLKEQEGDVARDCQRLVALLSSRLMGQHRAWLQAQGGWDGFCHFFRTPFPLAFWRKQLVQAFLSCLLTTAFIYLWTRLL

SMILES	displacement
Cc1ccsc1/C=C(\C#N)c1nc(-c2cccc([N+](=O)[O-])c2)cs1	147%
COC(=O)c1cc(Cl)c(NC(=O)c2ccccc2CCc2ccccc2)cc1OC	-5.5%
CCN(CC)S(=O)(=O)c1ccc(NS(=O)(=O)c2ccc(NC(C)=O)cc2)cc1	-2.1%
O=C(Nc1ccc2oc(-c3cc(Br)ccc3Cl)nc2c1)c1ccc([N+](=O)[O-])cc1	9.4%
Cc1ccc(N=C(NOCc2ccc([N+](=O)[O-])cc2)c2nonc2N)cc1	12.1%
COc1ccc(C2CC(=O)C3=C(C2)Nc2ccccc2NC3c2ccc(OCc3ccccc3)c(OC)c2)cc1 (configuration not stated)	-7.9%
O=C(NCC1CCCO1)c1cc2ccccc2oc1=O (configuration not stated)	-12.3%
CCCCOC(=O)c1ccc(NC(=O)c2c(Cl)cccc2Cl)cc1	-7.7%
COc1ccc(CC(=O)N/N=C/c2ccc(-c3cc(Cl)ccc3C)o2)cc1	6.5%
Oc1ccc(/C=N/Nc2nc3ccccc3s2)cc1	-5.4%
O=C(Nc1ccc(NC(=O)c2cccc3c(Br)cccc23)cc1)c1ccco1	1.3%
O=c1cc(-c2ccccc2)nc2cc(-c3ccc(F)cc3)[nH]n12	13.8%
N#C/C(=C\c1ccc(C(=O)O)cc1)C(=O)NCc1ccco1	-8.1%
CCN(CC)c1ccc(C=C2C(=O)N(C)C(=O)N(C)C2=O)c(O)c1	14.7%
O=C(CSc1nnc(-c2ccc(Br)cc2)o1)OCc1ccccc1	8.5%
Cc1ccc(C)n1-c1ccc(Nc2ccccc2)cc1	7.1%
CCc1c(C)sc(NC(=O)c2ccccc2Cl)c1C(=O)OC(C)C	-11.2%
Cc1cc(NS(=O)(=O)c2ccc(NC(=O)c3cc(-c4ccccc4C)nc4ccccc34)cc2)nc(C)n1	-11.3%
COc1ccc(-c2cc(-c3ccccc3)nc(N/N=C/c3ccccc3O)n2)cc1	-8%
CC(C)CNC(=O)c1cccc(NC(=O)/C=C/C(=O)O)c1	3.4%
C=CCc1cccc(/C=N/NC(=O)c2cc(C)[nH]n2)c1O	-2.4%
Cc1cc2nc(-c3ccc(NC(=S)NC(=O)c4ccco4)cc3)oc2cc1C	10.2%
CC(=O)c1cc(C(C)(C)C)c(O)c(C(C)(C)C)c1	-7.3%

SMILES	displacement
COc1ccc(/C=C/C(=O)Nc2ccc(OC)cc2OC)cc1	4.9%
O=[N+]([O-])c1cccc(-c2ccc(C(=S)N3CCN(c4ccc(F)cc4)CC3)o2)c1	-13.6%
O=S(=O)(Nc1cccc(Br)c1)c1ccc2ccccc2c1	-6.5%
Fc1ccc(-c2csc(N3CCOCC3)n2)cc1	-1.7%
COc1ccc2c(c1OC)C(=O)N(c1ccccc1Br)C2=O	1.9%
Cc1cc(NS(=O)(=O)c2ccc(NC(=O)C(C)C)cc2)nc(C)n1	-3.1%
O=S(=O)(c1ccc(Br)cc1)N1CCN(c2cccc(Cl)c2)CC1	-7.1%
CN(C)NC(=O)Nc1cccc(Cl)c1	0.2%
COc1ccccc1NC(=O)C1=C(C)NC(=S)NC1c1ccccc1Cl (configuration not stated)	6.2%
Cc1ccc(NC(=O)CSc2nc(C)cc(C)n2)cc1	-8%
CCN(CC)CCN1C(=O)C(O)=C(C(=O)/C=C/c2ccccc2)C1c1ccc(O)c(OC)c1 (configuration not stated)	-6.9%
Cc1cccc(OCC(O)CN2C(=O)NC(C)(C)C2=O)c1 (configuration not stated)	-5.8%
CC(=O)n1ccc(C(=O)Nc2ccc(Cl)c(Cl)c2)n1	-4.5%
O=C1CN=C(Nc2nc3ccccc3o2)N1	-10.9%
COC(=O)c1ccc(-n2ncnc2-c2ccc(Cl)c([N+](=O)[O-])c2)cc1	4%
CC1(CC(=O)NNC(=O)Nc2ccccc2)OCCCO1	-7.3%
COC(=O)c1ccccc1NC(=O)c1ccc2c(c1)OCCO2	-1.5%
CCN(CC)c1ccc(N=Cc2cccc(O)c2O)cc1	-3%
O=C(COc1ccc2ccccc2c1)Nc1ccc(I)cc1Cl	2.3%
CCC(C)c1ccc(OCCOc2c(I)cc(/C=N/n3cnnc3)cc2OC)cc1 (configuration not stated)	-12.2%
CCCCCCCCn1c(-c2nonc2NC(C)=O)nc2ccccc21	13.8%
COc1ccc(N2C(=O)NC(=O)/C(=C/c3cc(Cl)cc(OC)c3O)C2=O)cc1	-21.3%
CCC1=NN2C(=N)/C(=C/c3ccc(OCc4ccc(Br)cc4)c(OC)c3)C(=O)N=C2S1	14.4%

SMILES	displacement
O=C(Nc1ccc(OC(F)(F)F)cc1)c1ccc([N+](=O)[O-])cc1	6.8%
CC(=O)c1c(C(C)=O)c(C)n(-c2ccc(C)cc2)c1C	5.8%
CC1=C(c2ccccc2)[N+](=O)C(C)(c2ccc(C)cc2)N1[O-] (configuration not stated)	17.1%
O=C(CSc1cccc2cccnc12)c1ccc(Cl)cc1Cl	-1.6%
Cc1cc(C)nc(/N=C(/N)Nc2ccc(S(=O)(=O)Nc3nccc(C)n3)cc2)n1	6.2%
O=C(c1ccc(Br)o1)N1CCN(C(=O)c2ccc(Br)o2)CC1	28.8%
O=C1NC(=O)/C(=C/c2cccnc2)S1	12%
CN=C1S/C(=C\c2ccc(I)o2)C(=O)N1C	-7.4%
COc1ccccc1-n1c(O)c(C=C2C=Nc3ccccc32)c(=O)[nH]c1=S	8.3%
CC1=CC(C)(C)Nc2ccc(OCC(=O)c3ccccc3)cc21	19.2%
CCCCCOC(=O)CSc1nnc(-c2ccccc2Cl)o1	4.1%
CCOC(=O)c1ccc(-c2ccc(C(=O)Nc3ccc(-c4nc5ccccc5s4)c(O)c3)o2)cc1	-5.5%
CCOC(=O)C1=C(C)N=c2s/c(=C\c3ccc(I)cc3)c(=O)n2C1c1ccc(O)cc1 (configuration not stated)	7.4%
NC(=O)c1nn2c(c1Cl)NC(c1ccco1)CC2C(F)(F)F (configuration not stated)	1.8%
CC12c3ccccc3C(c3ccccc31)C1C(=O)N(c3ccccn3)C(=O)C12 (configuration not stated)	1.9%
CCCc1c(O)nc(SCCN(CCC)CCC)[nH]c1=O	-18.2%
O=C(NC(Cc1c[nH]c2ccccc12)C(=O)O)/C(=C/c1ccccc1)NC(=O)c1ccccc1 (configuration not stated)	-0.3%
CCCc1nc2ccccc2n1Cc1ccccc1	-6.8%
Cc1ccc(S(N)(=O)=O)cc1NC(=O)Cc1ccccc1	-6.5%
O=[N+]([O-])c1ccc2c(c1)S(=O)(=O)N=C2Nc1cccc(Cl)c1	9.5%
Cc1cc(OCC(=O)NCc2ccccc2Cl)ccc1Br	-1.3%
COc1ccc(N2C(=O)NC(=O)/C(=C/c3ccccc3OCCOc3ccccc3)C2=O)cc1	-17.5%
CC(C)(C#Cc1ccc(Br)cc1)OC(=O)Nc1cccc2ccccc12	8.6%

SMILES	displacement
COc1ccc(Br)cc1/C=N\N1CCN(c2ccc(C)cc2)CC1	-5.3%
NC(=O)C1CCN(C(=O)c2cccc(C#CC3(O)CCCCC3)c2)CC1	-7.7%
CC(C)(C)N1C(=O)NC(=O)C(=Cc2cccs2)C1=O	12.2%
CN1C(=O)C(=Cc2cccc(OCCOc3ccccc3)c2)C(=O)N(C)C1=O	-3.8%
CC1(C)OC(=O)CC1C(=O)NCc1ccccc1 (configuration not stated)	-11.6%
Cc1cc(Br)ccc1NCc1ccccn1	15.5%
O=C(Nc1ccc(N2CCOCC2)cc1)c1ccc(Br)cc1	-5.7%
O=C(Nc1ccccc1)c1c(F)c(F)c(F)c(F)c1F	-10.2%
CCOC(=O)C1CCN(C(=O)C(O)(c2ccccc2)c2ccccc2)CC1	-10.1%
Cc1ccc(C(=O)Nc2ccc(Nc3ccccc3)cc2)cc1[N+](=O)[O-]	-1.4%
COc1ccc(NC(=O)Cc2ccccc2[N+](=O)[O-])cc1	4.1%
Cc1cccnc1NC(=O)c1cc2c(ccc3ccccc32)oc1=O	93%
Cc1ccc(-n2ncnc2-c2cccc(Cl)c2)cc1Cl	10.1%
O=C(Nc1ccc(S(=O)(=O)Nc2ncccn2)cc1)c1ccccc1	11.1%
COc1cc2ccccc2cc1C(=O)Nc1cccc2ccccc12	-9.6%
Cc1ccc(C(=O)N2CCN(c3ccc(Cl)cc3)CC2)cc1[N+](=O)[O-]	-3%
CC(=O)N1C(=S)NC(=O)/C1=C\c1cccnc1	93.4%
CCOC(=O)c1cc(-c2ccc(Br)cc2)nc2ccccc12	-7.5%
Cc1cc(C=Nc2ccccc2)c(O)s1	13.1%
CN1C(=O)/C(=C/c2cc(Br)cc([N+](=O)[O-])c2O)SC1=S	-16.4%
O=C1c2ccccc2NC(c2ccccc2F)N1Cc1ccco1 (configuration not stated)	11.3%
COc1ccc(C(NC(C)=O)c2ccc(OC)cc2)cc1	2.3%
CCOC(=O)c1c(NC(=O)CCN2C(=O)c3cccc([N+](=O)[O-])c3C2=O)sc2c1CCCC2	-4.5%

SMILES	displacement
Cc1csc(NC(=O)CCC2CCCC2)n1	-3.7%
CN(C)c1ccc(NC(=O)c2ccc(Br)cc2)cc1	48.8%
CC(=O)N/C(=N/c1nc(C)cc(C)n1)Nc1ccc(Cl)c(Cl)c1	-18.8%
COC(=O)c1c(NC(=O)/C=C/C(=O)O)sc(C)c1-c1cc(C)ccc1C	2.1%
CC1=NN(C(=O)c2ccccc2)C(O)(c2ccccc2)C1 (configuration not stated)	2.1%
CC(C)c1ccc(NC(=O)c2ccccc2CCc2ccccc2)cc1	-0.2%
CCc1ccc(-c2nc3cc(NS(=O)(=O)c4ccccc4)ccc3o2)cc1	-3.4%
CCCNC(=O)C(=O)NCCc1ccc(OC)c(OC)c1	4.6%
Cc1ccc2nc(-c3cc(NC(=O)COc4ccccc4)ccc3OC(=O)COc3ccccc3)oc2c1	8.7%
COc1cc(F)ccc1S(=O)(=O)n1cnc2cc(C)c(C)cc21	9.1%
CC(C)CC(=O)Nc1ccc(-c2nc3ccccc3s2)cc1	6.1%
COc1ccc(CNC(=O)c2cccc(OC)c2)cc1	5.9%
CCOC(=O)C1CCN(C2CC(=O)N(c3ccc(F)cc3)C2=O)CC1 (configuration not stated)	-1.9%
NC(=O)C(=O)Nc1ccc(Oc2ccccc2)cc1	9.6%
CCCCNC(=O)c1ccc(N2CCCCC2)c([N+](=O)[O-])c1	-1%
O=C(CCc1ccccc1)Nc1ccc(Br)c(Cl)c1	-6%
O=C(Nc1nc2ccccc2s1)c1ccncc1	-4.8%
Cc1ccc(C(=O)Nc2ccc(NC(=O)c3cccc(Cl)c3)cc2)cc1C	8.1%
CCC1=NN2C(=N)/C(=C/c3ccc(-c4ccc([N+](=O)[O-])cc4OC)o3)C(=O)N=C2S1	4.4%
O=C1CC(CC(=C2C(=O)CCCC2=O)N2CCCC2)CC(=O)N1	1%
